From a collection of fitness landscapes (doi:10.1016/j.celrep.2020.107928)
In all, about 81,000 sequences were measured (“one-hybrid fitness for binding parS DNA”: median about -0.17, highest 2% from about 0.51 on). The list shows a part of the results.

B1: Caulobacter ParB omega fusion; a variant is named by its letters at X, in order, B8GW30 (parent)
chain: MESVVVGEPGMSEGRRGLGRGLSALLGEVDAAPAQAPGEQLGGSREAPIEILQRNPDQPRRTFREEDLEDLSNSIREKGVLQPILVRPSPDTAGEYQIVAGERAWRAAQRAGLKTVPIMVRELDDLAVLEIGIIENVQRADLNVLEEALSYKVLMEKFERTQENIAQTIGKSXSHVANXMRLLXLPDEVQSYLVSGELTAXHARAIAAAADPVALAKQIIEGGLSVRETEALARKAPNLSAGKSKGGRPPRVKDTDTQALESDLSSVLGLDVSIDHRGSTGTLTITYATLEQLDDLCNRLTRGI

Variants of: B1
Experiment: one-hybrid fitness for binding parS DNA (scaled: cognate 1, non-cognate 0); higher = stronger binding
Conditions: with parS DNA site
How it was run: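 Caulobacter ParB libraries with four specificity codons randomised were screened by bacterial one-hybrid selection in the E. coli USO strain, using a HIS3 reporter whose site lies 19 bp from the promoter. Selection ran for 48 hours at 37°C on M9 lacking histidine, with 0.1 mM IPTG and 5 mM 3-AT. Plasmids were Illumina-sequenced before and after selection, three replicate libraries were pooled, and variants with under 10 reads were dropped. Fitness is the log change in each variant's read ratio to wild type, rescaled against the cognate and non-cognate sites.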

Variant	one-hybrid fitness for binding parS DNA
QESL	≤ 0.2
EVNG	≤ 0.2
NSGL	≤ 0.2
EMDI	≤ 0.2
ADKS	≤ 0.2
CVSG	≤ 0.2
PTDP	≤ 0.2
ISMR	≤ 0.2
LGVQ	≤ 0.2
AWST	≤ 0.2
MGQS	≤ 0.2
SMRY	≤ 0.2
ADPC	≤ 0.2
FLRC	≤ 0.2
QTDG	≤ 0.2
DRTT	≤ 0.2
QPLF	≤ 0.2
QHSY	≤ 0.2
HWNC	≤ 0.2
VCKA	≤ 0.2
MRGC	≤ 0.2
GHIC	≤ 0.2
HQPS	≤ 0.2
IHEE	≤ 0.2
SWPA	≤ 0.2
VNNC	≤ 0.2

Variant	one-hybrid fitness for binding parS DNA
GHAL	≤ 0.2
LSAY	≤ 0.2
RHWF	≤ 0.2
RVNH	≤ 0.2
YPST	≤ 0.2
QFPT	≤ 0.2
FGYL	≤ 0.2
KEHD	≤ 0.2
RWIN	≤ 0.2
TFHC	≤ 0.2
LLKP	≤ 0.2
HWWW	≤ 0.2
ESPV	≤ 0.2
TVCL	≤ 0.2
QKRI	≤ 0.2
TAYQ	≤ 0.2
KSLT	≤ 0.2
GGDS	≤ 0.2
VMPY	≤ 0.2
RMQR	0.223
NEGS	≤ 0.2
YLTG	≤ 0.2
PRHH	≤ 0.2
LHEP	≤ 0.2
GSPA	≤ 0.2
RFAL	≤ 0.2

Variant	one-hybrid fitness for binding parS DNA
RWHI	≤ 0.2
YRTY	≤ 0.2
KRKH	≤ 0.2
WCVC	≤ 0.2
KTHR	≤ 0.2
QLQP	≤ 0.2
YKHV	≤ 0.2
KERC	≤ 0.2
IHRF	≤ 0.2
HQPF	≤ 0.2
SNTN	≤ 0.2
TYKC	≤ 0.2
WYVY	≤ 0.2
SAIR	≤ 0.2
NFHV	≤ 0.2
ACPE	≤ 0.2
QAED	≤ 0.2
NPDG	≤ 0.2
QEHT	≤ 0.2
GSTV	≤ 0.2
RNFE	≤ 0.2
VPRR	≤ 0.2
IVTF	≤ 0.2
MNLD	≤ 0.2
QHRY	≤ 0.2
AHQE	≤ 0.2

Variant	one-hybrid fitness for binding parS DNA
FYDT	≤ 0.2
QSSM	≤ 0.2
HKKK	≤ 0.2
HTCK	≤ 0.2
DPFC	0.246
GSQT	≤ 0.2
DKTK	≤ 0.2
SNVI	≤ 0.2
YRSA	≤ 0.2
QMCF	≤ 0.2
SSSK	≤ 0.2
RRDR	≤ 0.2
CVVC	≤ 0.2
GYRM	≤ 0.2
KEDG	≤ 0.2
RFME	≤ 0.2
TYHN	≤ 0.2
HPDI	≤ 0.2
DYNW	≤ 0.2
DTRS	≤ 0.2
TMNR	≤ 0.2
CVCL	≤ 0.2
LRRF	≤ 0.2
QQTR	≤ 0.2
SLMH	≤ 0.2
TWPF	≤ 0.2

Variant	one-hybrid fitness for binding parS DNA
NDTR	≤ 0.2
KVWC	≤ 0.2
CARY	≤ 0.2
TTLR	≤ 0.2
WVRG	≤ 0.2
QHAT	≤ 0.2
SNVD	≤ 0.2
FKSA	≤ 0.2
TIMT	≤ 0.2
YFTD	≤ 0.2
WGFC	≤ 0.2
PELS	≤ 0.2
GKNT	≤ 0.2
QMAS	≤ 0.2
VHVL	≤ 0.2
QQLW	≤ 0.2
GLKC	≤ 0.2
HAEG	≤ 0.2
GMRF	≤ 0.2
PSHN	≤ 0.2
CKLG	≤ 0.2
FPCG	≤ 0.2
GIDT	≤ 0.2
PFPD	≤ 0.2
SAML	≤ 0.2
NRIA	≤ 0.2

Variant	one-hybrid fitness for binding parS DNA
RDND	≤ 0.2
NTIR	≤ 0.2
STVD	≤ 0.2
RDAT	≤ 0.2
CTCR	≤ 0.2
TNDG	≤ 0.2
TWCT	≤ 0.2
QPEI	≤ 0.2
PATK	≤ 0.2
IKPG	≤ 0.2
PAKA	≤ 0.2
LSEV	≤ 0.2
KDHA	≤ 0.2
RNSS	0.967
SLRH	≤ 0.2
ASEP	≤ 0.2
DHDF	≤ 0.2
PYGM	≤ 0.2
YFAL	≤ 0.2
RMGM	0.315
CGKC	≤ 0.2
NNWT	≤ 0.2
RDIH	≤ 0.2
